Reference: PubChem BioAssay AID1346428 (National Center for Advancing Translational Sciences (NCATS), 2018)
“And” between values parts separate entries of the source, which are not always exact repeats. Equal entries are not always repeated. Hit rate of the full screen: of about 48,000 compounds, about 1,200 (2.5%) were called active. Another 2% or so got no clear call; they are omitted.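 Rule for the calls: active = activation of at least 60% and not above a set upper limit (about 1 call in 100 departs from these limits); inconclusive = activation of 40% to 60%, or above that upper limit; inactive = activation under 40%.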 The list shows a part of the results. Where a structure was tested more than once in an assay, its records may differ in their call.

biological target: Probable G-protein coupled receptor 32 (Homo sapiens) (UniProt O75388); assay: qHTS for Agonists of Human Resolvin D1 Receptor DRV1; conditions: CHO-K1 GPR32 beta-arrestin PathHunter luminescence, 90 min; at 76.9 µM; stronger effect = higher value; zero percent set by DMSO-only wells; note: 0% is about no effect
Outline: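 Cells are plated overnight, treated with compounds in DMSO for 90 minutes at 37 °C, and developed with PathHunter detection reagent for 1 hour before luminescence is read; signal reflects beta-arrestin binding to GPR32 in engineered CHO-K1 cells.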

Sequence of UniProt O75388 (O75388 whole entry, looked up): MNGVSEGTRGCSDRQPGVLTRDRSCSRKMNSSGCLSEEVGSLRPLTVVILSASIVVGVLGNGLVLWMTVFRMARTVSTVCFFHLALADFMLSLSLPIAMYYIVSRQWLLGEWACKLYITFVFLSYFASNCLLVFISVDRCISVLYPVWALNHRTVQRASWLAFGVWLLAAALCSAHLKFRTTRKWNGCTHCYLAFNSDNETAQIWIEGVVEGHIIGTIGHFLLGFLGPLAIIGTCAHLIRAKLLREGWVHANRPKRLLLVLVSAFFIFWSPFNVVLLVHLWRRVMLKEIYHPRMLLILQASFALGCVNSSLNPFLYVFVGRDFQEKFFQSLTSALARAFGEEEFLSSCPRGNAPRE

activation, active:
CCc1ccc(S(=O)(=O)Nc2ccc3oc(C)c(C(=O)OCCOC)c3c2)cc1 64.4%

activation, 96.7% (active) and -23.8% (inactive):
COc1ccccc1N1CCN(CC(O)COc2cccc3ccccc23)CC1 (centres undefined)

activation, inactive:
CCOC(=O)c1cccc(NC(=O)NC2COc3ccccc3C2)c1 (centres undefined) 22.4%
Cc1ccccc1CN1C(=O)c2ccccc2Sc2ccc(C(=O)NCCCN3CCOCC3)cc21 -23.5%
O=C(NCCCc1ccccc1)c1ccc2c(c1)sc1nc(-c3ccc(F)cc3)cn12 -7.93%
CC(=O)c1ccc(S(=O)(=O)Nc2cccc(-c3ccc(N4CCCC4)nn3)c2)cc1 -17.4%
CCOc1ccc(CC(=O)NCc2ccc3c(c2)CCN3C(=O)c2ccc(F)cc2)cc1OCC -7.87%
Cc1ccc(Sc2c(C)nn(-c3ccccc3)c2OC(=O)CC(C)C)cc1 -16.4%
CN1CCCC(CC2c3ccccc3Sc3ccccc32)C1 (centres undefined) 15.7%
CCOc1ccc(NC(=O)Cn2cc(C(=O)c3ccccc3)c(=O)c3cc(OC)ccc32)cc1 -9.54%
O=C(Cc1ccc(F)cc1)NCCc1csc2nc(-c3ccc(Cl)cc3)nn12 12.6%
COC(=O)c1cc(NC(=O)CCc2c(C)nc3nc(C)nn3c2C)cc(C(=O)OC)c1 4.52%
CCN1C(=O)c2ccccc2S(=O)c2ccc(C(=O)N3CCN(c4cccc(Cl)c4)CC3)cc21 (centres undefined) -14.9%
CCCCn1c(SCc2ccccc2C#N)nc2c(sc3ccccc32)c1=O 2.08%
CC1=C(C(=O)Nc2ccccc2C)C(c2ccc[nH]2)n2ncnc2N1 (centres undefined) -0.838%
Cc1ccc(-n2ncc3c(=O)n(Cc4cccc(C(F)(F)F)c4)cnc32)cc1C -8.75%
Cc1cccc(CC(=O)Nc2cccc(-c3cn4cccnc4n3)c2)c1 22.8%
CCOC(=O)Cn1c(=O)cc(C)c2c(C)nn(-c3cccc(F)c3)c21 -16.5%
Cc1ccc2c(c1)-c1onc(C(=O)N(C)c3ccc(F)cc3)c1CO2 -6.71%
COc1ccc(CNC(=O)C2CCN(S(=O)(=O)Cc3ccccc3)CC2)cc1 26.8%
Cc1cccc(NC(=O)c2cc3c(C)nn(-c4ccccc4)c3s2)c1 -41.7%
CCOC(=O)c1[nH]c(C)c(C(=O)NCc2ccccc2Cl)c1C 7.14%
O=C(NCc1ccc2c(c1)CCN2C(=O)c1ccncc1)c1cccc(F)c1 -10.5%
CCCCN(c1ccccc1)S(=O)(=O)c1cc2c3c(c1)C(C)C(=O)N3CCC2 (centres undefined) 1.17%
